Results from PubChem BioAssay AID624417 (National Center for Advancing Translational Sciences (NCATS), 2012).
Screen size: about 410,000 compounds; about 6,400 (1.6%) were called active. The inconclusive results got no clear call from the source; some entries with a clear call stand among them for comparison. The call rests on the fitted dose curve; in most records, active means well fitted inhibition curve with a large enough effect; inconclusive means small, poorly fitted or top-dose-only effect; inactive means no such curve, though single readings can be large or run the other way. Potencies of inconclusive entries are left out as doubtful fits.
Further: nearly all actives have a fitted effect of over 55% in size.
On the % scale 0 is the no-effect control and ±100 the full control effect; potency means the concentration at half of the fitted maximal effect; tags describe the fitted curve by direction and shape.

The compounds below were run against Glucagon-like peptide 1 receptor (Homo sapiens) (UniProt P43220) (assay: qHTS of GLP-1 Receptor Inverse Agonists (Inhibition Mode)). Conditions: HEK293 GLP-1R CRE-luciferase, luminescence, 24 h, GLP-1R form is constitutively active; activity change, negative = inhibition: at 38.3 µM (top of the series) unless noted.
UniProt P43220, sequence (P43220 whole entry, looked up): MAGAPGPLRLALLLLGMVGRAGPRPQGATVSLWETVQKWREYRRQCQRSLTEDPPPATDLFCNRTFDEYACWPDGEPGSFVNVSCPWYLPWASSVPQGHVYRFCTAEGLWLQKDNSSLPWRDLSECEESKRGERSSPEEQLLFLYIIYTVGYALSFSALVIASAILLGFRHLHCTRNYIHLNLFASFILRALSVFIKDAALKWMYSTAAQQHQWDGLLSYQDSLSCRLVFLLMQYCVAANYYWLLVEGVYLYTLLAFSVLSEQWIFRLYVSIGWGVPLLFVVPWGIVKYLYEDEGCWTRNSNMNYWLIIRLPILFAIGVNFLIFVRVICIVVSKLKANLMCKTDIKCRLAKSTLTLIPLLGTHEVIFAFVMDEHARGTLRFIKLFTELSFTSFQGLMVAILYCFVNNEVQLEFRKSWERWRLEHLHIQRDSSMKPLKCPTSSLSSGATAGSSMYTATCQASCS
How it was run: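 qHTS in 1536-well format: reporter HEK293 cells expressing constitutive GLP-1R activity in DMEM + 10% Nu serum, 24 hr with compounds at 37 deg C, luminescence read after 12 min with detection reagent.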
In the case of CC(CCc1ccccc1)NC(=O)C(Cc1ccccc1)NS(=O)(=O)c1cccs1 (configuration not stated), the Potency is reported as inconclusive [inhibitor, single point].
With CN(C)S(=O)(=O)c1cccc(NC(=O)Cc2ccc(-c3ccccc3)cc2)c1 the Potency was inconclusive [inhibitor, partial curve, poor fit].
For CN1CCN(C(=O)c2ccc(COc3ccc(Cl)cc3Cl)cc2)CC1, the Potency was “inactive”.
For CC(C)Oc1ccc(/C=N/NC(N)=S)cc1, the Potency was inconclusive [inhibitor, single point].
For Cc1c(C(=O)N(CC(C)C)c2c(N)n(Cc3ccccc3)c(=O)[nH]c2=O)sc2nc3n(c(=O)c12)CCC3, the Potency was “inactive”.
CCCCN(C(=O)CNC(=O)c1ccco1)C(C(=O)NC1CCCCC1)c1ccc(OC)cc1OC (configuration not stated) was tested, and the Potency was inconclusive [inhibitor, single point].
In the case of Cc1ccc(S(=O)(=O)N(C)Cc2ccc(C(=O)N/N=C/c3ccc(OC(F)F)cc3)cc2)cc1, the Potency is reported as “inactive”.
C/C(=N\NC(=S)NC1CCCCC1)c1ccc(C)o1 was tested, and the Potency was inconclusive [inhibitor, single point].
In the case of CCNC(=O)c1c(O)c2cccc3c2n(c1=O)CC3, the Potency is reported as inconclusive [inhibitor, full curve, poor fit].
CSC(=S)N/N=C(\C)c1ccccc1 was tested, and the Potency was inconclusive [inhibitor, full curve, poor fit].
In the case of Cc1cc(C)cc(NC(=O)Nc2cc(S(=O)(=O)N(C)C)ccc2C)c1, the Potency is reported as active: 10 µM.
COc1ccc(NS(=O)(=O)c2ccc(N3CCCC3)c(NC(=S)Nc3ccc(SC(F)F)cc3)c2)cc1 was tested, and the Potency was inconclusive [inhibitor, partial curve].
COc1ccc(C(=O)NN/C(C)=C/C(=O)C(F)(F)C(F)(F)C(F)(F)F)cc1 was tested, and the Potency was active: 5.01 µM.
In the case of Cc1ccc(S(=O)(=O)N2C3CCCCC3O[C@H]2CC(=O)c2ccccc2)cc1 (some centres not stated), the Potency is reported as inconclusive [inhibitor, partial curve].
COc1cccc(C(=O)NC(=S)Nc2ccc(N(C)C)cc2)c1 was tested, and the Potency was inconclusive [inhibitor, single point].
In the case of CN(C[C@H](CC1CCCCC1)N(C[C@H](Cc1ccccc1)N(CCc1ccccc1)N=O)N=O)N=O, the Potency is reported as inconclusive [inhibitor, single point].
For CCC(=O)Nn1cnc2c(c1=O)C1(CCCCC1)Cc1ccccc1-2, the Potency was inconclusive [inhibitor, partial curve, poor fit].
In the case of CCOC(=O)C1=CCC(c2ccc(Cl)cc2)N(S(=O)(=O)c2ccc(C)cc2)C1 (configuration not stated), the Potency is reported as inconclusive [inhibitor, single point].
For NC(=O)c1cc(Cc2ccccc2)sc1NC(=O)c1ccco1, the Potency was inconclusive [inhibitor, single point].
With Cc1ccc(NC2=C(NCCO)C(=O)c3ccccc3C2=O)cc1 the Potency was “inactive”.
Fc1ccc(-c2c[nH]c(=S)n2Cc2ccccc2)cc1 was tested, and the Potency was inconclusive [inhibitor, single point].
In the case of Cc1ccc(C(=O)N/N=C/c2cn(Cc3ccccc3)c3ccccc23)cn1, the Potency is reported as inconclusive [inhibitor, partial curve, poor fit].
O=C(O)Cc1sc(Nc2ccc(Cl)cc2)nc1-c1cccs1 was tested, and the Potency was inconclusive [inhibitor, single point].
With O=C(c1cccc(OC2CCN(Cc3ccc(F)cc3Cl)CC2)c1)N1CCCC1 the Potency was inconclusive [inhibitor, partial curve, poor fit].
For Nn1c(SCC(=O)Nc2ccc(F)c(F)c2)nnc1C1CCCCC1, the Potency was inconclusive [inhibitor, partial curve, poor fit].
For Cc1nn(C(C)C(=O)NCCc2ccccc2)c(=O)c2c1sc1ccccc12 (configuration not stated), the Potency was inconclusive [inhibitor, single point].
With Cc1ccccc1C(=O)Nc1cccc(NC(=O)c2ccc(C(C)(C)C)cc2)c1 the Potency was active: 7.94 µM.
For CSc1ncnc2c1ncn2CCCNCC(c1ccccc1)c1ccccc1, the Potency was inconclusive [inhibitor, single point].
CCc1ccc(Nc2c([N+](=O)[O-])c(=O)oc3ccccc23)cc1 was tested, and the Potency was inconclusive [inhibitor, partial curve, poor fit].
For CCCCC1=NN(C(=O)c2ccco2)C(O)(C(F)(F)F)C1 (configuration not stated), the Potency was active: 2.24 µM.
COc1ccc(C2CC(c3ccc(F)cc3)=NN2c2ccccc2)cc1OC (configuration not stated) was tested, and the Potency was active: 10 µM.
For O=C(NCC1CCCCC1)c1cc(S(=O)(=O)N2CCCCC2)ccc1Cl, the Potency was inconclusive [inhibitor, partial curve, poor fit].
COc1ccc(Nc2nc3ccccc3nc2NS(=O)(=O)c2ccc(NC(C)=O)cc2)cc1 was tested, and the Potency was “inactive”.
O=C(O)c1cccc(NC(=S)NC(NC(=O)c2cccc([N+](=O)[O-])c2)C(Cl)(Cl)Cl)c1 (configuration not stated) was tested, and the Potency was “inactive”.
CCOC(=O)c1ccc(NC(=O)CSc2nnc(CCc3ccc(C)o3)n2-c2ccccc2)cc1 was tested, and the Potency was inconclusive [inhibitor, full curve, poor fit].
COc1ccccc1CNCC(O)(c1ccc(Cl)cc1)c1ccc(Cl)cc1 was tested, and the Potency was inconclusive [inhibitor, single point].
For Cc1nc(SCC(=O)Nc2ccc3c(c2)OCCO3)nc(C)c1C, the activity change, negative = inhibition was inactive: 14.7% [at 0.307 µM].
In the case of NC(=O)c1c(NC(=O)Cc2ccccc2)sc2c1CCN(Cc1ccccc1)C2, the Potency is reported as inconclusive [inhibitor, partial curve, poor fit].
For O=C(Nc1ccccc1F)Nc1cccc2ccc(O)cc12, the Potency was inconclusive [inhibitor, single point].
With CCOC(=O)[C@H]1[C@H]2COc3cc(OC)ccc3[C@@H]2N2C(=O)CN(CCc3c[nH]c4ccccc34)C(=O)[C@@]12C the Potency was “inactive”.
In the case of CCC(C(=O)NC1CCCCC1)n1c(SCc2ccccc2F)nc2ccncc21 (configuration not stated), the Potency is reported as inconclusive [inhibitor, single point].
In the case of Cn1cc(/C=C/C(=O)N2CCCC(C(=O)c3ccc(C(C)(C)C)cc3)C2)cn1 (configuration not stated), the Potency is reported as inconclusive [inhibitor, single point].
With OC(c1ccc(Cl)c(F)c1)c1ncc(-c2cccc3ccccc23)[nH]1 (configuration not stated) the Potency was inconclusive [inhibitor, partial curve, poor fit].
CCCNC(=O)c1csc(Nc2cccc3ccccc23)n1 was tested, and the Potency was inconclusive [inhibitor, partial curve, poor fit].
In the case of Cc1ccc2nc(-c3ccccc3Cl)cc(C(=O)Nc3cc(C)on3)c2c1, the Potency is reported as inconclusive [inhibitor, partial curve, poor fit].
In the case of CCN(C[C@H]1N[C@@](CC)(C(=O)OC)[C@H]2C(=O)N(Cc3ccccc3)C(=O)[C@@H]12)C(=O)Nc1ccc(C(F)(F)F)cc1, the Potency is reported as “inactive”.
CCc1ccccc1NC(=O)CN(c1ccccc1OC)S(=O)(=O)c1ccc(C)cc1 was tested, and the Potency was inconclusive [inhibitor, single point].
With CC1(C(=O)NCc2cccc3ccccc23)CCN1C(=O)C1(c2ccccc2)CCCC1 (configuration not stated) the Potency was inconclusive [inhibitor, single point].
For COCCNC(=O)Cn1c(-c2cccs2)cc2cc(Cl)ccc21, the Potency was inconclusive [inhibitor, single point].
CC(C)c1ccc(NC(=O)C2(C)Cc3c(-c4ccc(N(C)C)cc4)ccnc3O2)cc1 (configuration not stated) was tested, and the Potency was inconclusive [inhibitor, full curve, poor fit].
With COc1ccc(C(C(=O)NC2CCCC2)N(Cc2ccccc2)C(=O)c2nsc(Cl)c2Cl)cc1 (configuration not stated) the Potency was inconclusive [inhibitor, single point].
CC[C@]12c3[nH]c4ccccc4c3CCN1C(=O)C(CC(=O)NC/C=C(\C)CCC=C(C)C)C[C@@H]2C(=O)N1CCN(C(=O)c2ccco2)CC1 (some centres not stated) was tested, and the Potency was inconclusive [inhibitor, single point].
In the case of O=C(Nc1ccc(S(=O)(=O)N2CCCCC2)cc1)c1ccccc1Cl, the Potency is reported as inconclusive [inhibitor, single point].
For c1ccc(C2c3[nH]c4ccccc4c3CCN2Cc2cccn2-c2cccnc2)nc1 (configuration not stated), the Potency was inconclusive [inhibitor, single point].
In the case of CC1CCc2c(sc(NC(=O)COC(=O)c3ccc(O)cc3)c2C#N)C1 (configuration not stated), the Potency is reported as inconclusive [inhibitor, partial curve, poor fit].
For O=C(Cn1cc(COc2c(F)c(F)cc(F)c2F)nn1)c1ccc(O)cc1, the Potency was “inactive”.
For COc1ccccc1CNc1nc(NCc2cccs2)nc2ccsc12, the Potency was inconclusive [inhibitor, single point].
In the case of COc1ccc(CCC2(C)NC(=O)N(C(C)C(=O)N3c4ccccc4CC3C)C2=O)cc1 (configuration not stated), the Potency is reported as inconclusive [inhibitor, single point].
For CC(NC(=O)C1CCN(Cc2ccccc2)CC1)c1cccc2ccccc12 (configuration not stated), the Potency was inconclusive [inhibitor, partial curve, poor fit].
COc1cc2sc(-c3ccccc3OC)c(-c3ccc(O)cc3)c2cc1OC was tested, and the Potency was inconclusive [inhibitor, partial curve, poor fit].
In the case of CC(C)Cc1nc2sc3c(c2c(=O)n1N)CC(C)(C)OC3, the Potency is reported as inconclusive [inhibitor, single point].
With CC(C)C[C@H]1CN([C@@H](CC(C)C)CN2CCCC2CN2C(=S)NC[C@@H]2Cc2ccc(O)cc2)C(=S)N1CCc1ccccc1 (some centres not stated) the Potency was inconclusive [inhibitor, partial curve, poor fit].
